This is an account of results in article PMC4237283.

Sequences of proteins named here, by UniProt entry; tags and fusion partners are left off. A change or cut given only in a name is not applied to a line headed by its entry. A line that says so, or that is headed by a name, gives the form on record, which may keep a tag or linker. Residues count along the entry.
UniProt O08852: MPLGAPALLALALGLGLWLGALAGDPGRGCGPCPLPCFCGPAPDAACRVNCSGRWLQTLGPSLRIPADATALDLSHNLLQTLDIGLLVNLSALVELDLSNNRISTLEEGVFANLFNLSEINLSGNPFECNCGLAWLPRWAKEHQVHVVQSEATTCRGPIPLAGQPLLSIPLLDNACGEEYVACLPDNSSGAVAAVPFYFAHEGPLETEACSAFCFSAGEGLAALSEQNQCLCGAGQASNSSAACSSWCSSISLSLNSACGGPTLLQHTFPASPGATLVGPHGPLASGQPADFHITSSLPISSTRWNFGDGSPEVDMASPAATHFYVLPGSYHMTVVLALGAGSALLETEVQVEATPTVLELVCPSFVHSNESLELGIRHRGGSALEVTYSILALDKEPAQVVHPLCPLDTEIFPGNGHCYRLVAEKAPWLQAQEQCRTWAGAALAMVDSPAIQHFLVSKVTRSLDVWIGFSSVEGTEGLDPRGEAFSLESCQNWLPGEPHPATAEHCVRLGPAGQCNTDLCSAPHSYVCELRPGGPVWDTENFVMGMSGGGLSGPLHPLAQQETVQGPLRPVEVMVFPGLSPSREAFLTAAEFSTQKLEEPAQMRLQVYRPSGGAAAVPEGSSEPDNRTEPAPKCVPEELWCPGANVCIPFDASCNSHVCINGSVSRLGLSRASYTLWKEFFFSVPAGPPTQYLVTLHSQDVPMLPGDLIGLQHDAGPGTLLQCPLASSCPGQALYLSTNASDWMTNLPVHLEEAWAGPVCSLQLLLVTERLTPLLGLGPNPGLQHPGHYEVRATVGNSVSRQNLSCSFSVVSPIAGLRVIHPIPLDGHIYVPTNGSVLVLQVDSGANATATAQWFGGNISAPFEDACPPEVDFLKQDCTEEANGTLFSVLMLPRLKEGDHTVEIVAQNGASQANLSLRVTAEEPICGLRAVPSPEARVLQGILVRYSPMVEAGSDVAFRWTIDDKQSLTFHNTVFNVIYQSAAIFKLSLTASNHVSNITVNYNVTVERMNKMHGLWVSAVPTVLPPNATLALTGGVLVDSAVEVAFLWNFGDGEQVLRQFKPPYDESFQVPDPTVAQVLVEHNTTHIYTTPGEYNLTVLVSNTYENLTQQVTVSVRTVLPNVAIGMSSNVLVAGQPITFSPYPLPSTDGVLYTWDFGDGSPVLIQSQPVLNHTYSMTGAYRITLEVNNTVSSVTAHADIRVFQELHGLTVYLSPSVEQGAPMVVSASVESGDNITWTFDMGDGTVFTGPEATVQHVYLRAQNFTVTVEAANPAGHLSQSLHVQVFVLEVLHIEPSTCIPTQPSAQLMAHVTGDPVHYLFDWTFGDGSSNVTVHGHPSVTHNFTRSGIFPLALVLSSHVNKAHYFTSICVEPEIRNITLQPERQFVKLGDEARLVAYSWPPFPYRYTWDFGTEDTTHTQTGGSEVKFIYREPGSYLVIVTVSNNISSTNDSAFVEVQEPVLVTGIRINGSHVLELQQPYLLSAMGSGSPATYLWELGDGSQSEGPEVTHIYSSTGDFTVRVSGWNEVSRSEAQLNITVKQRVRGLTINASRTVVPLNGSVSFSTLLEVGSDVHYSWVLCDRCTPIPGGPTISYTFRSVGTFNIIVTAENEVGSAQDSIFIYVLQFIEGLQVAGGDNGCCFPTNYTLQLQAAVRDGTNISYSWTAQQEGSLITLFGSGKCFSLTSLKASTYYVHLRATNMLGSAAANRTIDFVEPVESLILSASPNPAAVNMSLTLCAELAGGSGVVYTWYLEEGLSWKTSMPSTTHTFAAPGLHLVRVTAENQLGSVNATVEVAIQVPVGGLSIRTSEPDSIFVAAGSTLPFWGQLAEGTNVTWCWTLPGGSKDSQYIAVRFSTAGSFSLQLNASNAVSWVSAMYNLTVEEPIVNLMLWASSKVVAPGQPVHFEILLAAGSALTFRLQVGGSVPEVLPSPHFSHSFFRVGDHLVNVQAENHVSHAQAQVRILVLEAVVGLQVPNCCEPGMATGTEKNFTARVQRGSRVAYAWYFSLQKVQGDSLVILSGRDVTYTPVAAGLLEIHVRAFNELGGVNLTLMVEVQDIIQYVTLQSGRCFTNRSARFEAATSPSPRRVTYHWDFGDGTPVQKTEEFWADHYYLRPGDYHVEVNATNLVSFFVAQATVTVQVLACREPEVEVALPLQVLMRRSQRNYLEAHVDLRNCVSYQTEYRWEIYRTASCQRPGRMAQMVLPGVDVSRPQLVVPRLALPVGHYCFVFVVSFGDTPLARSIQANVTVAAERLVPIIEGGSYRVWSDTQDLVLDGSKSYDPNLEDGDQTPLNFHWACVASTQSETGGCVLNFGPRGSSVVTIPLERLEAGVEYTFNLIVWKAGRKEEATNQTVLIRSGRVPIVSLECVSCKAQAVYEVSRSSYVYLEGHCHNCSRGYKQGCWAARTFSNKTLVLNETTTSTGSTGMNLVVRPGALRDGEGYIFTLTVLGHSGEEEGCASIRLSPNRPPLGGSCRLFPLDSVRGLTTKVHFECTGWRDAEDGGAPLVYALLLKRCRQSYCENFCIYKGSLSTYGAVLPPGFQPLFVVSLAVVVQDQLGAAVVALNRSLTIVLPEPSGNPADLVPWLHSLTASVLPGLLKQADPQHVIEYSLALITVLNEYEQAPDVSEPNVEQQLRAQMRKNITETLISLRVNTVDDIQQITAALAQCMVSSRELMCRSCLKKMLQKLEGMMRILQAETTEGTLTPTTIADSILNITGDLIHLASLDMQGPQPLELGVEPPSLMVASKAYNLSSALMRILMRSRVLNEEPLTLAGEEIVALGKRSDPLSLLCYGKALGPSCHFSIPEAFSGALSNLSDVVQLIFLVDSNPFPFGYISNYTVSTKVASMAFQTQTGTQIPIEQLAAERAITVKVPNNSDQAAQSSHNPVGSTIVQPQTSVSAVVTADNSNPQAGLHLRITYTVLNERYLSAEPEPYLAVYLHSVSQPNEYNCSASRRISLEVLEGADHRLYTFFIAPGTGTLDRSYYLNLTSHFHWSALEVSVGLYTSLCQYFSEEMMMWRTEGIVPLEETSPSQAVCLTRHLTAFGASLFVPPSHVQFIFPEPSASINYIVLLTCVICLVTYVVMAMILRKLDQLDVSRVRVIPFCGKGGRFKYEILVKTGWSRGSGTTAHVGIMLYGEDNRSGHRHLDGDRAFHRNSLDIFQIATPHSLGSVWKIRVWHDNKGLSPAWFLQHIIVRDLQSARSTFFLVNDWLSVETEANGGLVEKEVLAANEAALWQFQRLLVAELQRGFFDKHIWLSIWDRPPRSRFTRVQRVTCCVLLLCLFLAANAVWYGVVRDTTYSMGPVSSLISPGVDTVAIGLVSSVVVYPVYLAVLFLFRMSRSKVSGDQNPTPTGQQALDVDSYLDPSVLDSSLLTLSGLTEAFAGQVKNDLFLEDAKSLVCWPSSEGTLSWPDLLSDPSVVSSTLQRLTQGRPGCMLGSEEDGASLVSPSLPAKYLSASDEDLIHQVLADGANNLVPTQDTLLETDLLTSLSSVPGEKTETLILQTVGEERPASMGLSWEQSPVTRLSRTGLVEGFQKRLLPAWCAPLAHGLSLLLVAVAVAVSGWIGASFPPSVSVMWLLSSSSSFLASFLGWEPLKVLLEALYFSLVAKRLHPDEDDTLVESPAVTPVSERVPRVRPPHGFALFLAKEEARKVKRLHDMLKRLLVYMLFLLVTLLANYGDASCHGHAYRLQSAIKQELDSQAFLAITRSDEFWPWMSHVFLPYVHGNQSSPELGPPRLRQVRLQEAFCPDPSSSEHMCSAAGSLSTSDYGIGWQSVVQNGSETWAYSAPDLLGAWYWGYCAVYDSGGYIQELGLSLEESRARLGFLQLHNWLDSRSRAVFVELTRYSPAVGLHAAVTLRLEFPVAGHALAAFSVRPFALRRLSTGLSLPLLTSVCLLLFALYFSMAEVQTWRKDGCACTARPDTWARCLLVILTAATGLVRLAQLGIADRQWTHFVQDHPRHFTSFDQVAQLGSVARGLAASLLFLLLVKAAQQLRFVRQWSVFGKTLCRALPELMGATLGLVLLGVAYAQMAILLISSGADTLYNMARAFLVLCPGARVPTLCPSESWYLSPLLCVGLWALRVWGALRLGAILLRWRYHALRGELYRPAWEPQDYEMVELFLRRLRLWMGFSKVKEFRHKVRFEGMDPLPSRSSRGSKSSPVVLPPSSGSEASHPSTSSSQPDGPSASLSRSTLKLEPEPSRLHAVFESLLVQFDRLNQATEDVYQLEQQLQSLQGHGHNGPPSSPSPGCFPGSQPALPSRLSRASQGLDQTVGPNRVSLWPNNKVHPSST
Endogenous mouse polycystin-1 (mouse (endogenous in MEFs, CD cells, kidney)): residues 24-4293 of O08852
Mouse polycystin-1 terminating at R4218X with a C-terminal FLAG tag before the stop codon: residues 24-4217 of O08852
UniProt P61750: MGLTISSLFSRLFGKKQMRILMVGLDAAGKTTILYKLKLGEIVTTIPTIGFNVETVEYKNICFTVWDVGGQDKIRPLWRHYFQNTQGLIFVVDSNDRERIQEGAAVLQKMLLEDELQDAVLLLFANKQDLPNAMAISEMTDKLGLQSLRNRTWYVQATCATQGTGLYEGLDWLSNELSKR
UniProt A0A8I3NZH4: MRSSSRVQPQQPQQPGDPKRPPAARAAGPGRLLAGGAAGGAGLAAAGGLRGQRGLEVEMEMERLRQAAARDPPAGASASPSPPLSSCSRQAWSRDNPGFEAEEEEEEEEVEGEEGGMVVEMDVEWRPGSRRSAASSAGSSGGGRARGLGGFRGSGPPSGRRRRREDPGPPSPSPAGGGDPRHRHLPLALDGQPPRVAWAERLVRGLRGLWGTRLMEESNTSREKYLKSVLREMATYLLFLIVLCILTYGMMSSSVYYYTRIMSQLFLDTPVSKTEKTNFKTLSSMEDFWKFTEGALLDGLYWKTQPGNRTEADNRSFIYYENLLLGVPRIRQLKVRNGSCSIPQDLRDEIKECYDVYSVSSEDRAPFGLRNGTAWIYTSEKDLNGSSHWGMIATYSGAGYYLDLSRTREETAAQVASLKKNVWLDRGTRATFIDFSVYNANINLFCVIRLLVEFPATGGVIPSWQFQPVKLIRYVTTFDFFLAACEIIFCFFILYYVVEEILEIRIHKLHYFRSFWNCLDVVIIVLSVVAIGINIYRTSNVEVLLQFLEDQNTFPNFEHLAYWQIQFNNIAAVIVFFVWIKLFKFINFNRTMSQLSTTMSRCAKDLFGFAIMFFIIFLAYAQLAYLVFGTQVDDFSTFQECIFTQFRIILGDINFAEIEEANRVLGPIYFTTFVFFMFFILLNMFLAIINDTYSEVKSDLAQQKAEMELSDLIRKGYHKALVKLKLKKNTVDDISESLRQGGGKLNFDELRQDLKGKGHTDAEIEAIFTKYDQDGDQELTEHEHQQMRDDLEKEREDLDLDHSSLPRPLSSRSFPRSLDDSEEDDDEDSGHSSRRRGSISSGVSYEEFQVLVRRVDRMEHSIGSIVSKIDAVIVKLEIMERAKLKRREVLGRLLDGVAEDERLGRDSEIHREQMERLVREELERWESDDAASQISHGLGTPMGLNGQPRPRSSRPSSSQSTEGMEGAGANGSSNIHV
UniProt Q9WUL7: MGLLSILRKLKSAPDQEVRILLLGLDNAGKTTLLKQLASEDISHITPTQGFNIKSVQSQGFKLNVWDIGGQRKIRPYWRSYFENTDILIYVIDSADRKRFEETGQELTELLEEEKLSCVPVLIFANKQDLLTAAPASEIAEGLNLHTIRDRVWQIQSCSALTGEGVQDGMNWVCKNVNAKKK

The target of assay [1] is Endogenous mouse polycystin-1 (mouse (endogenous in MEFs, CD cells, kidney)) (UniProt O08852). The assay can be described thus: co-IP; endogenous PC1 immunoprecipitated with anti-PC1 (α-CC) from lysates of mouse MEFs (wild type, Pkd2−/−, Pkd1^V/V), CD cells (also with Rabep1, GGA1 or Arl3 shRNA knockdown) and kidneys; western blot; lysis buffer 20 mM sodium phosphate pH 7.2, 150 mM NaCl, 1 mM EDTA, 10% glycerol, 1% Triton X-100.

Assay [2] has as its target Full-length mouse polycystin-1 with a C-terminal FLAG tag, L4219P and A4222P within the coiled-coil domain (mouse) (UniProt O08852). The experiment in a line: co-IP; lysates of induced MDCK cells; reciprocal immunoprecipitation with anti-FLAG or anti-PC2; western blot with anti-PC1 (7e12) or anti-PC2; lysis buffer 20 mM sodium phosphate pH 7.2, 150 mM NaCl, 1 mM EDTA, 10% glycerol, 1% Triton X-100.

Assay [3] has as its target Full-length wild-type mouse polycystin-1 with a C-terminal FLAG tag (mouse) (UniProt O08852). Described as above.
Assay [4] concerns the target Mouse polycystin-1 terminating at R4218X with a C-terminal FLAG tag before the stop codon (mouse) (UniProt O08852). The assay is described as above.
For assay [5], the target named is T1, Endogenous mouse GGA1 (Golgi-localized, gamma adaptin ear-containing, ARF-binding) (mouse (endogenous in CD cells, MEFs, embryos)) (UniProt Q8R0H9).
T1 sequence: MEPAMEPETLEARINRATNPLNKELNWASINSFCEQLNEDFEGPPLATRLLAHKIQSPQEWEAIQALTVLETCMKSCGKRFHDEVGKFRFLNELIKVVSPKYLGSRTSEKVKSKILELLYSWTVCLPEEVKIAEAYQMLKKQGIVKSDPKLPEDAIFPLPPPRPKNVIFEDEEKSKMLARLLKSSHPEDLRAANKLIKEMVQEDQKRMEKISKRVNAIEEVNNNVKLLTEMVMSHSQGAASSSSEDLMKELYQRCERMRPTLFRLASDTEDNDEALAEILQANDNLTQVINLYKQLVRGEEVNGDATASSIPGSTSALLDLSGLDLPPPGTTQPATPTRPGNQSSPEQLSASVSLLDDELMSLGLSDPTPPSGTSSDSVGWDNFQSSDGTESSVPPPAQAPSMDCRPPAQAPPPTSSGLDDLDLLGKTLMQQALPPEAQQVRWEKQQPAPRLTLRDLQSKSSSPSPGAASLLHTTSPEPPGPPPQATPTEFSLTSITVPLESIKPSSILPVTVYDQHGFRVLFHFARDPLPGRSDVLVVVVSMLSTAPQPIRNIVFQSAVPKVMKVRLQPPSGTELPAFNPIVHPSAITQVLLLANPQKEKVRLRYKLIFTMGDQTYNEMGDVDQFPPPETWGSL
The experiment in a line: co-IP; endogenous GGA1 immunoprecipitated (rabbit anti-GGA1 is listed among the IP antibodies) from CD cells with Rabep1 knockdown and from wild-type and Pkd1−/− MEFs; western blot.

Assay [6] has as its target C-terminal Myc-tagged PC1 of Pkd1^MYC/MYC embryos (mouse (endogenous knock-in in embryos)) (UniProt O08852). The experiment in a line: co-IP; lysates of Pkd1^MYC/MYC, Pkd1^ΔCMYC/ΔCMYC and untagged wild-type mouse embryos; Myc-tagged PC1 immunoprecipitated (rabbit anti-Myc is listed among the IP antibodies); western blot. For orientation: In western blotting, separated proteins are transferred to a membrane and probed.

Assay [7] addresses Endogenous mouse polycystin-1 (mouse (endogenous in MEFs, CD cells, kidney)) (UniProt O08852). The assay can be described thus: co-IP; endogenous PC1 immunoprecipitated with anti-PC1 (α-CC) from lysates of mouse MEFs (wild type, Pkd2−/−, Pkd1^V/V), CD cells (also with Rabep1, GGA1 or Arl3 shRNA knockdown) and kidneys; western blot; lysis buffer 20 mM sodium phosphate pH 7.2, 150 mM NaCl, 1 mM EDTA, 10% glycerol, 1% Triton X-100. The source holds these as a separate data set.

The target of assay [8] is Non-cleavable polycystin-1 expressed from the Pkd1^V knock-in allele (mouse (endogenous knock-in in Pkd1^V/V MEFs and kidneys)) (UniProt O08852). The description is as above.
The target in assay [9] is T1, Endogenous mouse GGA1 (Golgi-localized, gamma adaptin ear-containing, ARF-binding) (mouse (endogenous in CD cells, MEFs, embryos)). The experiment in a line: co-IP; endogenous GGA1 immunoprecipitated (rabbit anti-GGA1 is listed among the IP antibodies) from CD cells with Rabep1 knockdown and from wild-type and Pkd1−/− MEFs; western blot. The source holds these as a separate data set.

Read-outs that look alike come from different tables or passages of the source. Results are given in words; binding and its absence hold for the method and conditions named. Binding seen in cells or lysates may run through a third protein. Some results given as binding are weak or reduced against the parent protein; the word gives no strength.

For “Endogenous mouse Arf4 (from UniProt P61750 1-180)”, in [1], the binding result was “no binding”.
As for “Endogenous polycystin-2 of MDCK cells (from UniProt A0A8I3NZH4 1-977)”, the binding entry is “no binding” in assay [2], “binds” in [3] and “no binding” in assay [4].
With “Endogenous mouse Arl3 (from UniProt Q9WUL7 1-182)”, the binding result in assay [5] is “binds”.

B1: Endogenous mouse polycystin-2 (protein, UniProt O35245 1-966)
chain: MVNSRRVQPQPPGDAGRSPAPRASGPGRLVAGGAGLAVPGGLGEQRGLEIEMERIRQAAARDPPAGASASPSPPLSSCSRQAWSRDNPGFEAEEDDDDDEVEGEEGGMVVEMDVEWRPGSRRSASSSAVSSVGARGRGLGSYRGAAHLSGRRRRLEDQGAQCPSPAGGGDPLHRHLPLEGQPPRVAWAERLVRGLRGLWGTRLMEESNANREKYLKSVLRELVTYLFFLVVLCILTYGMMSSNVYYYTRTLSQLFIDTPVSKTEKTNFKTLSSMEDFWKFTEGSFLDGLYWKAQTSNHTQADNRSFIFYENLLLGVPRLRQLRVRNGSCSIPQDLRDEIKECYDVYSVSSEDRAPFGPRNGTAWMYTSEKELNGSSHWGIIASYSGAGYYLDLSRTREETAAQLAGLRRNFWLDRGTRAAFIDFSVYNANINLFCVVRLLAEFPATGGVVPSWQFQPVKLIRYVTAFDFFLAACEIIFCFFIIYYVVEEILEIRIHRLSYFRSFWNCLDVVIVVLSVVAMVINIYRMSNAEGLLQFLEDQNSFPNFEHVAYWQIQFNNISAVMVFLVWIKLFKFINFNRTMSQLSTTMSRCAKDLFGFTIMFSIIFLAYAQLAYLVFGTQVDDFSTFQECIFTQFRIILGDINFAEIEEANRVLGPLYFTTFVFFMFFILLNMFLAIINDSYSEVKSDLAQQKAEMELSDLIRKGCQKALVKLKLKRNTVDAISESLRQGGGKLNFDELRQDLKGKGHTDAEIEAIFTKYDQDGDQELTEREHQQMRDDLEKEREDLDLEHSSLPRPMSSRSFPRSLDDSEEEDDEDSGHSSRRRGSISSGVSYEEFQVLVRRVDRMEHSIGSIVSKIDAVIVKLEIMERAKLKRREVLGRLLDGVAEDARLGRDSEIHREQMERLVREELERWESDDAASQTGHGVSTQVGLGGQPHPRNPRPPSSQSAEGLEGGGGNGSANVHA
With B1, the binding entry in assay [6], in [7] and in assay [8] was “binds” in each case.

B2: Endogenous mouse Rabep1 (protein, UniProt O35551 1-862)
chain: MAQPGPAPQPDVSLQQRVAELEKINAEFLRAQQQLEQEFNQKRAKFKELYLAKEEDLKRQNAVLQAAQDDLGHLRTQLWEAQAEMENIKAIATVSENTKQEAIDEVKRQWREEVASLQAIMKETVRDYEHQFHLRLEQERAQWAQYRESAEREIADLRRRLSEGQEEENLENEMKKAQEDAEKLRSVVMPMEKEIAALKDKLTEAEDKIKELEASKVKELNHYLEAEKSCRTDLEMYVAVLNTQKSVLQEDAEKLRKELHEVCHLLEQERQQHNQLKHTWQKANDQFLESQRLLMRDMQRMEIVLTSEQLRQVEELKKKDQEEDEQQRVNKRKDNKKTDTEEEVKIPVVCALTQEESSTPLSNEEEHLDSTHGSVHSLDADLMLPSGDPFSKSDNDMFKDGLRRAQSTDSLGTSSSLQSKALGYNYKAKSAGNLDESDFGPLVGADSVSENFDTVSLGSLQMPSGFMLTKDQERAIKAMTPEQEETASLLSSVTQGMESAYVSPSGYRLVSETEWNLLQKEVHNAGNKLGRRCDMCSNYEKQLQGIQIQEAETRDQVKKLQLMLRQANDQLEKTMKEKQELEDFLKQSAEDSSHQISALVLRAQASEVLLEELQQSFSQAKRDVQEQMAVLMQSREQVSEELVRLQKDNDSLQGKHSLHVSLQLAEDFILPDTVEVLRELVLKYRENIVHVRTAADHMEEKLKAEILFLKEQIQAEQCLKENLEETLQLEIENCKEEIASISSLKAELERIKVEKGQLESTLREKSQQLESLQEMKVNLEEQLKKETAAKATVEQLMFEEKNKAQRLQTELDVSEQVQRDFVKLSQTLQVQLERIRQADSLERIRAILNDTKLTDINQLPET
Regarding B2, the binding result in assay [9], in [6] and in [7] was “binds” throughout.
